Assay results taken from PMC8321701.
Results are given in words; binding and its absence hold for the method and conditions named. For part of these data: Binding seen in cells or lysates may run through a third protein. Some results given as binding are weak or reduced against the parent protein; the word gives no strength. For part of these data: Where a sequence is shown, tags or fusion partners need not be part of it. Blank lines part the entries; values can stand above or below the molecule they belong to.

The chains behind the UniProt entries cited, without tags or fusion partners. Where a name states a change or a piece, a line headed by the entry shows the natural chain unless it says otherwise.
UniProt P62745: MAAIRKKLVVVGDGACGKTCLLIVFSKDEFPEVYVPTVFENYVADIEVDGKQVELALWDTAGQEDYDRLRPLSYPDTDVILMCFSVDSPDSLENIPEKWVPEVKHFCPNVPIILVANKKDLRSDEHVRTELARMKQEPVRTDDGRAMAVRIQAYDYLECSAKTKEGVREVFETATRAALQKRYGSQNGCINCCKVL
UniProt Q9BST9: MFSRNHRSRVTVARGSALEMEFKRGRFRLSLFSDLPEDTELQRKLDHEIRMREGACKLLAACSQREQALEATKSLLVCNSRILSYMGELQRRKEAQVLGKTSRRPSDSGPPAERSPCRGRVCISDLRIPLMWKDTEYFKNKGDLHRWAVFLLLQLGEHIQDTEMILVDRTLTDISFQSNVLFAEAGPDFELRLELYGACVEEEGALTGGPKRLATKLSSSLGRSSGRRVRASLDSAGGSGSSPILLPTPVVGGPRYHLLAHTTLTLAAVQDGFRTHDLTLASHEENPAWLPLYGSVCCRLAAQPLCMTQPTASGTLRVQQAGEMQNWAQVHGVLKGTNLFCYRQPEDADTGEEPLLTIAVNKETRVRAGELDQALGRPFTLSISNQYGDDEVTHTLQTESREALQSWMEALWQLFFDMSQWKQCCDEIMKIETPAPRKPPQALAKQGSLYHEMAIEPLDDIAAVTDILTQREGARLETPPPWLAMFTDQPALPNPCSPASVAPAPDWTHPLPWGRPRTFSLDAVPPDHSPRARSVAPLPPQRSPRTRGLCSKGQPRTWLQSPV

Legend:
[1] = biological target: biotinylated RhoB (Q63L), constitutively active mutant (human) (UniProt P62745); test: AlphaScreen or HTRF; high-throughput screen: biotin-tagged RhoB bait (WT, Q63L or T19N) with each FLAG-GST-tagged protein of the 4,212 human protein array; streptavidin donor beads, anti-DYKDDDDK antibody and protein A acceptor beads; 100 mM Tris-HCl pH 8.0, 0.01% Tween 20, 1 mg/ml BSA; 25°C, 1 h; wheat cell-free translation products
[2] = biological target: T1, biotinylated CNKSR1 (wild-type) (human) (UniProt Q969H4); test: AlphaScreen or HTRF; competition: purified His-RhoB (Q63L) (500 ng) added for 1 h to the mixture of CNKSR1-biotin and PTPRH-cyto-FLAG (wheat germ products); only the binder purified
T1 sequence (chain, biotinylated): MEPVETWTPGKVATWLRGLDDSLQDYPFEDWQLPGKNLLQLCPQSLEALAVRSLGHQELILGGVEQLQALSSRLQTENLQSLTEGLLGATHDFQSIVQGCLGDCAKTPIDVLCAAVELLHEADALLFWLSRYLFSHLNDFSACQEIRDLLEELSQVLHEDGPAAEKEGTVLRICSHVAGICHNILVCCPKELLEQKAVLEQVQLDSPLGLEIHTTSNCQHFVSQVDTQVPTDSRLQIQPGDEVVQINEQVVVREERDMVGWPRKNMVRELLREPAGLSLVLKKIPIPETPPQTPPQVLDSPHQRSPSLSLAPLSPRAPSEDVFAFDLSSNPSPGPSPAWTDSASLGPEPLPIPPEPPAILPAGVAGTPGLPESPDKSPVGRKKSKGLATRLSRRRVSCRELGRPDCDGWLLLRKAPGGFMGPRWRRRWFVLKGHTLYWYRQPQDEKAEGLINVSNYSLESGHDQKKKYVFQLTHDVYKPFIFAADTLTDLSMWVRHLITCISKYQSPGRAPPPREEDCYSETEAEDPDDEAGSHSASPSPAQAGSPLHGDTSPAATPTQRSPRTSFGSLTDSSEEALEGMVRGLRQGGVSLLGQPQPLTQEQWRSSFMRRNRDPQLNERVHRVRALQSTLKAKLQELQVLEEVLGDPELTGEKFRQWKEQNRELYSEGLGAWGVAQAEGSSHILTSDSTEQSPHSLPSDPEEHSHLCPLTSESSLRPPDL

[3] = biological target: purified His-RhoB (Q63L) (human) (UniProt P62745); test: pull-down; lysates of SKBR-3 cells expressing Myc-CNKSR1 (WT, ΔPH or W493A) in IP buffer (25 mM Tris-HCl pH 7.4, 150 mM NaCl, 1% NP-40, 1 mM EDTA, 5% glycerol) incubated with purified His-tagged RhoB (Q63L) 2 h at 4°C, then TALON resin 1 h at 4°C; Western blot; only the target purified
[4] = biological target: FLAG-tagged RhoB (Q63L) (human) (UniProt P62745); test: AlphaScreen or HTRF; in vitro binding assay of a biotinylated and a FLAG-tagged protein, both synthesized by wheat germ extracts; 100 mM Tris-HCl pH 7.5, 0.01% Tween 20, 1 mg/ml BSA, anti-FLAG antibody, streptavidin donor and anti-IgG acceptor beads; room temperature, 1 h; threshold of interaction 10 times the signal with DHFR
[5] = biological target: T2, PTPRH-HA (wild-type) (human) (UniProt Q9HD43); test: co-IP; SKBR-3 cells, control siRNA or KCTD10 siRNA #1 for 72 h, 48 h after transfection of PTPRH-HA and CNKSR1 vectors; IP with HA antibody, Western blot; KCTD10 knockdown reduced the interaction
T2 sequence: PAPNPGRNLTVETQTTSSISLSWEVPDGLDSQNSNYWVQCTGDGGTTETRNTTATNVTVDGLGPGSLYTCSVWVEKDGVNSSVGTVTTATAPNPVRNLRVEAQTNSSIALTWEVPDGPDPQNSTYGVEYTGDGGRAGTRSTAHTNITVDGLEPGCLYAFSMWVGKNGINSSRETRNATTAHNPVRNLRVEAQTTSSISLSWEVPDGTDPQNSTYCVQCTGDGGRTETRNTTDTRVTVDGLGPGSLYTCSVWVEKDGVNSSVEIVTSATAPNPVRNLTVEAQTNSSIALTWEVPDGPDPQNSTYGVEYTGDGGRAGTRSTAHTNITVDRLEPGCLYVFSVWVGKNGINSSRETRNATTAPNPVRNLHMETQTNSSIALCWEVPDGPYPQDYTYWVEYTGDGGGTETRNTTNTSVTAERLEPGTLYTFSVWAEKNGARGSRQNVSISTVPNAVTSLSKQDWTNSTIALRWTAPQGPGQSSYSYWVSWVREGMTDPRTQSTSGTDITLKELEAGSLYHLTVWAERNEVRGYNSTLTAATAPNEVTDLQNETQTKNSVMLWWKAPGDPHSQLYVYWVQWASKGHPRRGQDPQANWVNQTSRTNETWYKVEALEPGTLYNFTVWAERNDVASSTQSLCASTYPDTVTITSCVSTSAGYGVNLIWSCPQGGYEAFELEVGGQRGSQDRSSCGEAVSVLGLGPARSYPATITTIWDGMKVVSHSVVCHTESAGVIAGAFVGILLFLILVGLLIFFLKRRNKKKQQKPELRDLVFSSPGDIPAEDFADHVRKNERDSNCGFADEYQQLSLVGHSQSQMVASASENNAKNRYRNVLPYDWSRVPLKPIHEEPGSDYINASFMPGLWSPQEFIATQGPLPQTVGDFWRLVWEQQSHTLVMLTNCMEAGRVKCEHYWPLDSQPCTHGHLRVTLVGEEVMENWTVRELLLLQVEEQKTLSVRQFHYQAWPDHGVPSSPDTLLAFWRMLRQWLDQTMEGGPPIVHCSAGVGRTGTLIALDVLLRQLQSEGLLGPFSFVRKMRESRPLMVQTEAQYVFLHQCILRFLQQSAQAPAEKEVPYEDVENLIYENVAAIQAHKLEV

Molecule: purified His-RhoB (Q63L) (from UniProt P62745 1-196)
- binding [2]: binds

B2: Myc-CNKSR1 (W493A) (protein, UniProt Q969H4 1-720)
chain: MEPVETWTPGKVATWLRGLDDSLQDYPFEDWQLPGKNLLQLCPQSLEALAVRSLGHQELILGGVEQLQALSSRLQTENLQSLTEGLLGATHDFQSIVQGCLGDCAKTPIDVLCAAVELLHEADALLFWLSRYLFSHLNDFSACQEIRDLLEELSQVLHEDGPAAEKEGTVLRICSHVAGICHNILVCCPKELLEQKAVLEQVQLDSPLGLEIHTTSNCQHFVSQVDTQVPTDSRLQIQPGDEVVQINEQVVVREERDMVGWPRKNMVRELLREPAGLSLVLKKIPIPETPPQTPPQVLDSPHQRSPSLSLAPLSPRAPSEDVFAFDLSSNPSPGPSPAWTDSASLGPEPLPIPPEPPAILPAGVAGTPGLPESPDKSPVGRKKSKGLATRLSRRRVSCRELGRPDCDGWLLLRKAPGGFMGPRWRRRWFVLKGHTLYWYRQPQDEKAEGLINVSNYSLESGHDQKKKYVFQLTHDVYKPFIFAADTLTDLSMAVRHLITCISKYQSPGRAPPPREEDCYSETEAEDPDDEAGSHSASPSPAQAGSPLHGDTSPAATPTQRSPRTSFGSLTDSSEEALEGMVRGLRQGGVSLLGQPQPLTQEQWRSSFMRRNRDPQLNERVHRVRALQSTLKAKLQELQVLEEVLGDPELTGEKFRQWKEQNRELYSEGLGAWGVAQAEGSSHILTSDSTEQSPHSLPSDPEEHSHLCPLTSESSLRPPDL
- binding [3]: no binding

Now from value to molecule:

- binding [1]: binds
Molecule: FLAG-GST-tagged RTKN (alias Rhotekin) of the 4,212 human protein array (from UniProt Q9BST9 1-563)

- binding [3]: binds
B1: Myc-CNKSR1 (wild-type) (protein, UniProt Q969H4 1-720)
chain: MEPVETWTPGKVATWLRGLDDSLQDYPFEDWQLPGKNLLQLCPQSLEALAVRSLGHQELILGGVEQLQALSSRLQTENLQSLTEGLLGATHDFQSIVQGCLGDCAKTPIDVLCAAVELLHEADALLFWLSRYLFSHLNDFSACQEIRDLLEELSQVLHEDGPAAEKEGTVLRICSHVAGICHNILVCCPKELLEQKAVLEQVQLDSPLGLEIHTTSNCQHFVSQVDTQVPTDSRLQIQPGDEVVQINEQVVVREERDMVGWPRKNMVRELLREPAGLSLVLKKIPIPETPPQTPPQVLDSPHQRSPSLSLAPLSPRAPSEDVFAFDLSSNPSPGPSPAWTDSASLGPEPLPIPPEPPAILPAGVAGTPGLPESPDKSPVGRKKSKGLATRLSRRRVSCRELGRPDCDGWLLLRKAPGGFMGPRWRRRWFVLKGHTLYWYRQPQDEKAEGLINVSNYSLESGHDQKKKYVFQLTHDVYKPFIFAADTLTDLSMWVRHLITCISKYQSPGRAPPPREEDCYSETEAEDPDDEAGSHSASPSPAQAGSPLHGDTSPAATPTQRSPRTSFGSLTDSSEEALEGMVRGLRQGGVSLLGQPQPLTQEQWRSSFMRRNRDPQLNERVHRVRALQSTLKAKLQELQVLEEVLGDPELTGEKFRQWKEQNRELYSEGLGAWGVAQAEGSSHILTSDSTEQSPHSLPSDPEEHSHLCPLTSESSLRPPDL

- binding [4]: no binding
B3: biotinylated CNKSR1 (W493A), full length (protein, UniProt Q969H4 1-720)
chain: MEPVETWTPGKVATWLRGLDDSLQDYPFEDWQLPGKNLLQLCPQSLEALAVRSLGHQELILGGVEQLQALSSRLQTENLQSLTEGLLGATHDFQSIVQGCLGDCAKTPIDVLCAAVELLHEADALLFWLSRYLFSHLNDFSACQEIRDLLEELSQVLHEDGPAAEKEGTVLRICSHVAGICHNILVCCPKELLEQKAVLEQVQLDSPLGLEIHTTSNCQHFVSQVDTQVPTDSRLQIQPGDEVVQINEQVVVREERDMVGWPRKNMVRELLREPAGLSLVLKKIPIPETPPQTPPQVLDSPHQRSPSLSLAPLSPRAPSEDVFAFDLSSNPSPGPSPAWTDSASLGPEPLPIPPEPPAILPAGVAGTPGLPESPDKSPVGRKKSKGLATRLSRRRVSCRELGRPDCDGWLLLRKAPGGFMGPRWRRRWFVLKGHTLYWYRQPQDEKAEGLINVSNYSLESGHDQKKKYVFQLTHDVYKPFIFAADTLTDLSMAVRHLITCISKYQSPGRAPPPREEDCYSETEAEDPDDEAGSHSASPSPAQAGSPLHGDTSPAATPTQRSPRTSFGSLTDSSEEALEGMVRGLRQGGVSLLGQPQPLTQEQWRSSFMRRNRDPQLNERVHRVRALQSTLKAKLQELQVLEEVLGDPELTGEKFRQWKEQNRELYSEGLGAWGVAQAEGSSHILTSDSTEQSPHSLPSDPEEHSHLCPLTSESSLRPPDL
modifications: biotinylated

- binding [5]: binds
B4: CNKSR1 (non-tagged), expressed in SKBR-3 cells (protein, UniProt Q969H4 1-720)
chain: MEPVETWTPGKVATWLRGLDDSLQDYPFEDWQLPGKNLLQLCPQSLEALAVRSLGHQELILGGVEQLQALSSRLQTENLQSLTEGLLGATHDFQSIVQGCLGDCAKTPIDVLCAAVELLHEADALLFWLSRYLFSHLNDFSACQEIRDLLEELSQVLHEDGPAAEKEGTVLRICSHVAGICHNILVCCPKELLEQKAVLEQVQLDSPLGLEIHTTSNCQHFVSQVDTQVPTDSRLQIQPGDEVVQINEQVVVREERDMVGWPRKNMVRELLREPAGLSLVLKKIPIPETPPQTPPQVLDSPHQRSPSLSLAPLSPRAPSEDVFAFDLSSNPSPGPSPAWTDSASLGPEPLPIPPEPPAILPAGVAGTPGLPESPDKSPVGRKKSKGLATRLSRRRVSCRELGRPDCDGWLLLRKAPGGFMGPRWRRRWFVLKGHTLYWYRQPQDEKAEGLINVSNYSLESGHDQKKKYVFQLTHDVYKPFIFAADTLTDLSMWVRHLITCISKYQSPGRAPPPREEDCYSETEAEDPDDEAGSHSASPSPAQAGSPLHGDTSPAATPTQRSPRTSFGSLTDSSEEALEGMVRGLRQGGVSLLGQPQPLTQEQWRSSFMRRNRDPQLNERVHRVRALQSTLKAKLQELQVLEEVLGDPELTGEKFRQWKEQNRELYSEGLGAWGVAQAEGSSHILTSDSTEQSPHSLPSDPEEHSHLCPLTSESSLRPPDL
